Test results from PubChem BioAssay AID1468 (National Center for Advancing Translational Sciences (NCATS), 2008).
Hit rate of the full screen: of about 280,000 compounds, about 1,100 (0.39%) were called active. Inconclusive results, whose numbers are uncertain, are shown with a selection of clear calls. Calls follow the shape of the dose curve; as a rule, active = well fitted inhibition curve with a large enough effect; inconclusive = small, poorly fitted or top-dose-only effect, or effect the other way; inactive = flat fitted curve, though single readings scatter. No potency is given beside an inconclusive call; the fits are too rough.

molecular target: Microtubule-associated protein tau (Homo sapiens) (UniProt P10636); assay: qHTS for Inhibitors of Tau Fibril Formation, Fluorescence Polarization; settings: K18 P301L tau heparin fibrillization, Alexa594 FP, 6 h; series mostly up to 57.7 µM; activity, negative = inhibition: at the top concentration; also: nearly all actives have a fitted effect of over 55% in size
In short: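 K18 P301L tau (15 uM unlabeled/0.24 uM Alexa 594-labeled, final) + compound + heparin 20 uM final; 100 mM NaOAc pH 7; 6 hr 37 C; ThT 30 uM final added, 1 hr RT; FP ex 555/em 632 nm.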
% is scaled to controls: 0 for no effect and ±100 for the full control effect; potency is read from the fitted curve at half-maximal effect; tags tell the direction and shape of the fitted curve.

Sequence of UniProt P10636 (P10636 whole entry, looked up): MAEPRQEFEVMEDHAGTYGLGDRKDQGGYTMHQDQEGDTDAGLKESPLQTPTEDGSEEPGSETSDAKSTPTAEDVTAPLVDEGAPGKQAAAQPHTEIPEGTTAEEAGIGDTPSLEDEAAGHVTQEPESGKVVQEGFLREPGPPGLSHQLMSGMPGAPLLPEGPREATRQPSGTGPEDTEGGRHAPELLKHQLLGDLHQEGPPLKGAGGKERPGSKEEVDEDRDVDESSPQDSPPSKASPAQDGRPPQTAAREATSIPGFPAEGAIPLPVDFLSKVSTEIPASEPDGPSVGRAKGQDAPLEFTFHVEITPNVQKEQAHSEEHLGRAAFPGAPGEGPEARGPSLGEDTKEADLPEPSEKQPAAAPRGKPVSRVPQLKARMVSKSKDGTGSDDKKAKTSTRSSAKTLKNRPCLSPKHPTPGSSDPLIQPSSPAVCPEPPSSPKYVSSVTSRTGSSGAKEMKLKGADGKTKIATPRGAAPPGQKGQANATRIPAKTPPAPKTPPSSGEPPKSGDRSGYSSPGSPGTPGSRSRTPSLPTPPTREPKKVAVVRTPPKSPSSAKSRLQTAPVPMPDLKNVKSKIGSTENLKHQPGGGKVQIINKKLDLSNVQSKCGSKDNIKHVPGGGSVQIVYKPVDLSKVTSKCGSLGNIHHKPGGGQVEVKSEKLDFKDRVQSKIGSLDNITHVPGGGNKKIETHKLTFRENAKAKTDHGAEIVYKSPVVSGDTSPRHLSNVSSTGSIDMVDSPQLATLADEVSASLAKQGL

Structure (SMILES)	Potency	activity, negative = inhibition
CN(CC(=O)Nc1ccc(N2CCOCC2)cc1)CC(=O)Nc1ccc(C(F)(F)F)cc1	inconclusive [activator, single point]	–
COc1ccc(N(CC(C)C)S(=O)(=O)c2nnc(NC(=O)c3ccco3)s2)cc1	inconclusive [inhibitor, partial curve, poor fit]	–
Cc1cc(NC(=O)c2ccco2)cc(-c2nc3ccccc3o2)c1O	inconclusive [inhibitor, full curve, poor fit]	–
COc1ccc(-n2c(COc3cccc4cccnc34)nnc2SCC(=O)O)cc1	inconclusive [inhibitor, partial curve, poor fit]	–
COc1cc2c(=O)n(Cc3ccco3)c(=O)n(CC(=O)c3ccc(Br)cc3)c2cc1OC	inconclusive [inhibitor, single point]	–
COc1ccccc1C(=O)NCC(c1ccc(N(C)C)cc1)N1CCc2ccccc21 (stereo not given)	inconclusive [inhibitor, single point]	–
CCOC(=O)c1ccc2c(c1)N(CC#N)C(=O)C(C)(C)O2	inconclusive [inhibitor, single point]	–
O=C(CCCn1c(=O)[nH]c2ccc(Br)cc2c1=O)N1CCN(c2cccc(Cl)c2)CC1	inconclusive [inhibitor, single point]	–
O=C(Nc1nc2ccc(F)cc2s1)c1cccc(S(=O)(=O)N2CCc3ccccc32)c1	inconclusive [inhibitor, partial curve]	–
COc1ccc(C(=O)CC2SC(N)=NC2=O)cc1 (stereo not given)	–	inactive: -9.84%
Cc1cc(C)nc(N2C(=O)CC(Cc3ccccc3)C2=O)n1 (stereo not given)	inconclusive [inhibitor, partial curve, poor fit]	–
C[C@@H](CO)NC(=O)c1ccc2c3n(nc2c1)-c1ccccc1CO3	–	inactive: 0.074%
CCc1ccc(NC(=O)Cn2nc(C(F)(F)F)c3c2CCCC3)cc1	inconclusive [inhibitor, partial curve]	–
COc1cc(NC(=O)c2ccc(-c3nc(CSc4ccccc4)c(C)o3)cc2)cc(OC)c1	inconclusive [inhibitor, partial curve]	–
CCOc1ccc(-c2cn3c(n2)sc2cc(C(=O)NCCCN4CCCCC4)ccc23)cc1	–	inactive: 3.19%
O=c1[nH]c2c(c(=O)[nH]1)CCC2	inconclusive [inhibitor, full curve, poor fit]	–
COc1cc(OC)cc(-c2nnc(SCC(=O)c3ccc([N+](=O)[O-])cc3)o2)c1	–	inactive: 0.265%
O=C(CSc1nncn2c1cc1occc12)Nc1ccc(F)c(Cl)c1	inconclusive [inhibitor, partial curve, poor fit]	–
CCOc1cc(NC(=S)NCC2CCCO2)c(OCC)cc1NC(=O)c1ccc(OC)cc1 (stereo not given)	inconclusive [activator, partial curve, poor fit]	–
COc1cc(Nc2nn(-c3ccc(OC(F)(F)F)cc3)nc2C(C)=O)cc(OC)c1	–	inactive: 2.62%
Cc1ccc(NC(=S)N/N=C/c2c(C)[nH]c3ccccc23)cc1	–	inactive: 8.81%
COc1ccc(NC(=S)N2CCN(C(c3ccccc3)c3ccccc3)CC2)c(OC)c1	inconclusive [activator, single point]	–

Structure (SMILES)	Potency	activity, negative = inhibition
COc1cc(/C=C2\SC(=Nc3ccccc3)N(Cc3ccco3)C2=O)ccc1OC(C)C(=O)O (stereo not given)	–	inactive: 10.3%
COc1ccc(-c2c(C(F)(F)F)nn(C)c2NC(C)=O)cc1	–	inactive: -4.15%
CN(C)CC(=O)N1c2ccccc2CCc2ccc(NC(=O)c3ccc(N)cc3)cc21	–	inactive: 4.48%
CCN(CC)c1ccc(NC(=S)NC(=O)c2cccs2)cc1	–	inactive: 18.5%
O=C(NCCc1ccc(Cl)cc1)c1nnc(Cc2ccc(Cl)cc2Cl)o1	inconclusive [inhibitor, partial curve]	–
O=C(CNc1cc(S(=O)(=O)N2CCCC2)ccc1OCC(F)(F)F)Nc1cc(Cl)cc(Cl)c1	inconclusive [inhibitor, single point]	–
CCc1cccc(NC(=O)C2CCCN2S(=O)(=O)c2ccc3nc(-c4ccccc4)[nH]c3c2)c1 (stereo not given)	active: 31.6 µM	–
COc1ccc2c(c1)-c1c(sn(-c3ccccc3)c1=S)C(C)(C)N2	inconclusive [activator, full curve, poor fit]	–
COc1cc(C2CC(=O)c3cnc(N4CCN(Cc5ccccc5)CC4)nc3C2)cc(OC)c1OC (stereo not given)	inconclusive [activator, single point]	–
O=c1c(-c2ccccc2)c1-c1ccccc1	inconclusive [inhibitor, single point]	–
COc1ccc(N(CC(=O)N2CCCCC2)S(=O)(=O)c2ccc(OC)c(OC)c2)cc1	inconclusive [inhibitor, single point]	–
CSc1ccc(/C=C(\NC(=O)c2ccc(C)cc2)C(=O)Nc2cccc(C)c2)cc1	inconclusive [inhibitor, partial curve, poor fit]	–
COc1ccc(NC(=O)c2sc3nc(C)nc(N4CCOCC4)c3c2C)c(OC)c1	inconclusive [inhibitor, single point]	–
N=c1n(CC(=O)c2ccc(Br)s2)c2ccccc2n1Cc1ccccc1	inconclusive [activator, single point]	–
CCOC(=O)c1ccc(NC(=O)Nc2ccc(F)cc2)cc1	inconclusive [inhibitor, partial curve]	–
Oc1cc(O)c2c(c1)OC(c1ccc(O)c(O)c1)C(O)C2 (stereo not given)	active: 14.1 µM	–
COc1ccc(OC)c([C@@H]2Nc3ccc(C(=O)O)cc3[C@@H]3C=CC[C@@H]32)c1	–	inactive: 4.8%
Cc1ccc2nc(NC(=O)CCCc3nc4ccccc4s3)sc2c1	–	inactive: -13.2%
O=C(Nc1ccc(F)c(F)c1)c1cc(S(=O)(=O)N2CCN(c3ccccn3)CC2)ccc1F	inconclusive [inhibitor, partial curve, poor fit]	–
CCOc1ccc(N2C(=O)/C(=C\c3ccc(O)c(OC)c3)S(=O)(=O)C2c2cccc([N+](=O)[O-])c2)cc1 (stereo not given)	–	inactive: 8.06%
Cc1c(Cl)cccc1NC(=S)NCc1ccccc1Cl	–	inactive: 3.44%
CC(C)c1ccc(Nc2nc(CC(=O)O)cs2)cc1	inconclusive [activator, single point]	–

Structure (SMILES)	Potency	activity, negative = inhibition
COc1ccc(N=Nc2n(C)c3ccccc3[n+]2C)cc1	inconclusive [inhibitor, partial curve, poor fit]	–
CC1CCC(NC(=O)c2ccc3c(c2)N(Cc2ccccc2F)C(=O)c2ccccc2S3(=O)=O)CC1 (stereo not given)	inconclusive [inhibitor, single point]	–
O=C(O)c1cccc(-n2cccc2/C=C\[N+](=O)[O-])c1	inconclusive [inhibitor, partial curve, poor fit]	–
CC(C)C(NS(=O)(=O)c1c(Cl)cccc1Cl)C(=O)OCC(=O)c1c[nH]c2ccccc12 (stereo not given)	inconclusive [inhibitor, partial curve]	–
CCCCNC(=S)N/N=C/c1ccc(OCC(=O)Nc2c(C)cc(C)cc2C)c(OC)c1	–	inactive: 2.54%
Cc1cccc(N2CCN(Cc3nnc(-c4cccc(Br)c4)o3)CC2)c1C	–	inactive: 9.3%
CCC(C)c1ccc(NC(=S)NC2CCN(Cc3ccccc3)CC2)cc1 (stereo not given)	inconclusive [inhibitor, single point]	–
CC(C)C1N(C(N)=S)N=CC1(C)C (stereo not given)	–	inactive: 0.759%
O=S(=O)(c1ccccc1)c1nc(-c2ccco2)oc1Nc1ccccc1	inconclusive [inhibitor, single point]	–
O=C1C2ON(c3ccccc3)C(c3ccccn3)C2C(=O)N1c1ccc(Br)cc1 (stereo not given)	inconclusive [inhibitor, full curve, poor fit]	–
O=S(=O)(c1ccc2nc(-c3ccccc3)[nH]c2c1)N1CCN(c2cccc(Cl)c2)CC1	inconclusive [inhibitor, full curve]	–
N#C/C(=C\c1ccc(OC(=O)c2ccc(Cl)s2)cc1)c1nc2ccccc2[nH]1	inconclusive [inhibitor, partial curve]	–
Cc1cccc(NC(=O)C2CCCN2S(=O)(=O)c2ccc3nc(-c4ccccc4)[nH]c3c2)c1 (stereo not given)	inconclusive [inhibitor, partial curve]	–
Cc1ccc(C(=O)NCc2ccco2)cc1S(=O)(=O)N1CCOCC1	inconclusive [inhibitor, single point]	–
CCCOc1ccc(C2C(C(=O)/C=C/c3ccco3)=C(O)C(=O)N2CCN2CCOCC2)cc1OC (stereo not given)	–	inactive: -1.14%
Cc1ccc(S(=O)(=O)c2nnn3c2nc(NCc2ccc4c(c2)OCO4)c2sccc23)cc1C	inconclusive [inhibitor, partial curve]	–
CC1CCc2c(sc(N)c2C(N)=O)C1 (stereo not given)	inconclusive [inhibitor, single point]	–
O=C(CSc1nc2ccccc2c(=O)n1Cc1ccc(F)cc1)NCc1cccs1	inconclusive [inhibitor, single point]	–
O=C(N/C(=C/c1cccc(Br)c1)c1nc(=S)[nH][nH]1)c1ccccc1	inconclusive [inhibitor, partial curve]	–
CN(C)c1ccc(N=Cc2nc(-c3ccccc3)oc2OC(=O)c2cccc(Cl)c2)cc1	inconclusive [inhibitor, single point]	–
Cc1ccc(C)c(N2CCN(S(=O)(=O)c3cc(C(=O)Nc4ccc(Oc5ccccc5)cc4)ccc3F)CC2)c1	inconclusive [inhibitor, partial curve, poor fit]	–
